These results are taken from publication PMC12136788.

The list shows a part of the results.

T1: UNK ZnF1-6 (called full-length) (human, UniProt Q9C0B0 30-357)
T1 sequence: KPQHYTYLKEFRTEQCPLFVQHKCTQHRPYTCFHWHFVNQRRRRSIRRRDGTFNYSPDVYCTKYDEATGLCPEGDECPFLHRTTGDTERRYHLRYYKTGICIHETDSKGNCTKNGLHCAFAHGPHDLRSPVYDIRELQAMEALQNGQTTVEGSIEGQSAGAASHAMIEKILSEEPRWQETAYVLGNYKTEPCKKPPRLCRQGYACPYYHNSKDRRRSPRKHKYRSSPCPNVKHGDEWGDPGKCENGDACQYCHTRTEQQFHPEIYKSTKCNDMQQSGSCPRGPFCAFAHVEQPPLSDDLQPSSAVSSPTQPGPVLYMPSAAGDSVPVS

B1: chr10:131940083:131940120:+|CDS_3pUTR|ENSG00000175470|msi1_unk|FALSE|overlapping (ssRNA)
RNA: GGGAGUUCUACAGUCCGACGAUCAUAUAAUGUUUACAGCACCUUUCAAAGUCAUGAACCGGAGUUUGACUAUUUGAAAAGUCUAGAAAUUGAGGAAAAAAUUAAUAAAAUUAGGUGGUUACCACAACAGAAUGCUGCUCAUUUCAACAGAGGAUUGAGCAUCA
B2: ENSG00000136451:be:win_201|CDS|ENSG00000136451|bound_else_gene|NA|bound_elsewhere_windowed (ssRNA)
RNA: GGGAGUUCUACAGUCCGACGAUCAGAAAAACCCAAAACUUCAUUUGUGUGCACUUACUGCAGUAAAGCUUUCAGGGACAGCUAUCACCUGAGGCGCCACGAAUCCUGCCACACAGGGAUCAAGUUGGUGUCCCGGCCAAAGAACAACAGAGGAUUGAGCAUCA
B3: chr14:96341565:96341677:-|CDS|ENSG00000066739|unk|total|mutant (ssRNA)
RNA: GGGAGUUCUACAGUCCGACGAUCCUGGAACCCCAAAAUUAUUUAUGAGCCACACCCACAGCUAACCCGAAAUUUACCAGAGACCGCACCUUCUGACCCAGUGCAGAUUGGACGGUUAAUUGGCCGGUUGGAGUUGAGUCUCACCAACAGAGGAUUGAGCAUCA
B4: chr11:46743636:46743700:-|3pUTR|ENSG00000175216|msi1_unk|FALSE|overlapping (ssRNA)
RNA: GGGAGUUCUACAGUCCGACGAUCUUGUAAAAUUGUCCUAAUCUUUCCUAGCUUUUUAAUAGUUAAUAUUAGAAACUCUUUAAUAGUUUUCCUUUCAGUUUGUGAGCUCUUCUCUGUCGCCCUGAAGGGUCACUGUAUUCUGUACAACAGAGGAUUGAGCAUCA
B5: chr13:42321371:42321394:+|3pUTR|ENSG00000023516|msi1_unk|FALSE|overlapping (ssRNA)
RNA: GGGAGUUCUACAGUCCGACGAUCUUCUGUUUAUGGUGUAAUCAUUCUGAGGUGAGGCUUUUCUUAUUUCCUUUGCAUUUUGCUAGAGCUGUGCUGAGUUCAGCAUUUGCUUAUUUAACCACUACAUAAUGACAGACCAGUUAUCAACAGAGGAUUGAGCAUCA
B6: ENSG00000124766:be:win_2951|3pUTR|ENSG00000124766|bound_else_gene|NA|bound_elsewhere_windowed (ssRNA)
RNA: GGGAGUUCUACAGUCCGACGAUCCUUUAUUCCUUCCUUUUCCUUUUUUUCUUUUUUUUUUCUUUUUUUUUUUUUUUUUUUGGUAGUUGUUGUUACCCACGCCAUUUUACGUCUCCUUCACUGAAGGGCUAGAGUUUUAACUUUCAACAGAGGAUUGAGCAUCA

The experiment concerns the target T1, UNK ZnF1-6 (called full-length). Briefly: nsRBNS (natural sequence RNA bind-n-seq); RBNS binding buffer (assumed for nsRBNS): 25 mM Tris pH 7.5, 150 mM KCl, 3 mM MgCl2, 0.01% Triton X-100, 500 ug/ml BSA, 20 U/ml SUPERase-In, 4 C; UNK is unkempt and MSI1 is Musashi-1; names of the RNAs are library labels; protein concentration not given here; high values mean tight binding.
B1: the binding signal amounted to 8.41 enrichment R. B2: the binding signal turned out to be 0.529 enrichment R.

Regarding B3, the binding signal was found to be 0.744 enrichment R. The same measure for B4: 10.7 enrichment R; for B5: 0.605 enrichment R; for B6: 35.6 enrichment R.
